64 molecules from article PMC6919601, “Identification of Plasmodium dipeptidyl aminopeptidase allosteric inhibitors by high throughput screening” (PLoS ONE, 2019) can be followed below.

Hit rate of the full screen: of about 110,000 compounds, about 230 (0.21%) showed an effect of 50% or more. Some of the results follow.
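Further: 30 min substrate incubation versus DMSO and 10 µM JCP410 controls.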

Sequence of DPAP1 (Q8IIJ9 whole entry, looked up): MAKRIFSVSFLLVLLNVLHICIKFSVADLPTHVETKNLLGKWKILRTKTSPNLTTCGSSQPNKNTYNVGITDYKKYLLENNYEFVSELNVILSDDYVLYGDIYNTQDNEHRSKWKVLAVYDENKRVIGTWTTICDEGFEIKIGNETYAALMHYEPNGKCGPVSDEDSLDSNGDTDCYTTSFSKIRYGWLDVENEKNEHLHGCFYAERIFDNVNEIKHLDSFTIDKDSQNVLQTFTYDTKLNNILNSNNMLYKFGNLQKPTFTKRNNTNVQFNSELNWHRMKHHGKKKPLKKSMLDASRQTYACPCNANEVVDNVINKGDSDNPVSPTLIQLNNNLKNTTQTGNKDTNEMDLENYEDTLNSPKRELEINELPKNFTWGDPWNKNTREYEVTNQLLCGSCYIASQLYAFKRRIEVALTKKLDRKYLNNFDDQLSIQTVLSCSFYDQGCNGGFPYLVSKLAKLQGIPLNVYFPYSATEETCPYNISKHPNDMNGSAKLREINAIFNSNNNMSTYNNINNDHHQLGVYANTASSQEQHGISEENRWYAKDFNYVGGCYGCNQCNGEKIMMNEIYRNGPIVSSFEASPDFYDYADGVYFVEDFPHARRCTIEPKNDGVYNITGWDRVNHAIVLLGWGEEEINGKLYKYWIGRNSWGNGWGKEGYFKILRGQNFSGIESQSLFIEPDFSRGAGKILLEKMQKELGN

The experiment addresses DPAP1 (Plasmodium falciparum, UniProt Q8IIJ9). Put plainly: primary screen, percent inhibition; read by cleavage of a fluorogenic dipeptide substrate; higher = more effect of the substance. Also noted: species or system P. falciparum D10 trophozoite lysates; single well.
As for `O=C(c1cc(-c2ccc(O)cc2)on1)N1CCc2ccccc2C1`, the “% Inhibition @ 10 uM” value is on record as 0.723%.

Regarding `N#Cc1ccccc1NC(=O)c1ccc(Br)cc1`, the “% Inhibition @ 10 uM” value is -4.01%.

As for `O=C1CCCC1NC(=O)[C@H](CS(=O)(=O)Cc1ccccc1OC(F)F)NC(=O)N1CCOCC1` (stereo partly shown), the “% Inhibition @ 10 uM” value was 1.35%.

For the molecule `Cc1cccc(Cn2nc(C)c(NC(=O)c3ccc4c(c3)OCO4)c2C)c1`, the “% Inhibition @ 10 uM” value was -1.24%.

With `COc1ccc(C(=O)NCc2ccc(C)cc2)c(OC)n1`, the “% Inhibition @ 10 uM” value turned out to be 0.029%.

Regarding `COc1ccc(-c2noc(-c3nnn(-c4ccc(Br)cc4F)c3N)n2)cc1`, the “% Inhibition @ 10 uM” value was 5.71%.

Regarding `Cc1c(C#N)c2ccccc2n1CC(=O)NCc1ccc2c(c1)OCO2`, the “% Inhibition @ 10 uM” value is reported as -0.941%.

On to `CCc1nn(CC(=O)N2CCN(C(=O)c3ccco3)CC2)c(=O)c2cc3occc3n12`, for which the “% Inhibition @ 10 uM” value is given as -7.79%.

As for `O=C(O)Cc1c(C(=O)O)[nH]c2ccccc12`, the “% Inhibition @ 10 uM” value is on record as -2.21%.

As to `Cc1cc(C)c2c(=O)c3c(oc2c1)C(=O)N(Cc1ccco1)C3c1ccc(Cl)cc1` (stereo not shown), the “% Inhibition @ 10 uM” value was 1.67%.

For the molecule `CC(=O)N1CCc2c([nH]c3ccccc23)C1c1cccc(O)c1` (stereo not shown), the “% Inhibition @ 10 uM” value was found to be 4.55%.

Take `Cc1[nH]c(C)c(C(=O)O)c1C=O`: the “% Inhibition @ 10 uM” value is listed as -1.97%.

For the molecule `Cn1c(=O)c2c(ncn2Cc2cc(-c3ccccc3)no2)n(C)c1=O`, the “% Inhibition @ 10 uM” value is given as -7.15%.

With `CC1(C)CCCC2=C1CC(C(=O)O)C(C(=O)O)C2` (stereo not shown), the “% Inhibition @ 10 uM” value worked out at 1.9%.

Turning to `COc1ccccc1OCc1ccc(C(=O)NCc2ccco2)o1`, the “% Inhibition @ 10 uM” value is on record as -8.85%.

As for `FC(F)(F)c1nc(NCC2CCCO2)nc2c1CCCCC2` (stereo not shown), the “% Inhibition @ 10 uM” value is -0.972%.

For `CCOC(=O)c1nc2c(=O)oc3ccccc3c2n(CC)c1=O`, the “% Inhibition @ 10 uM” value is listed as -3.57%.

On to `O=C(Nc1ccc(-c2nc3ccccc3[nH]2)cc1)C1CC1`, for which the “% Inhibition @ 10 uM” value was 18.3%.

With `N#C/C(=C/Nc1ccccc1)c1nc(-c2ccc(-c3ccccc3)cc2)cs1`, the “% Inhibition @ 10 uM” value turned out to be 2.22%.

As for `Cc1ccc(Cn2nc(C)c(N)c2C)cc1`, the “% Inhibition @ 10 uM” value was -10.7%.

Regarding `CCN1C(=O)/C(=C\c2cc(OC)ccc2OC)S/C1=N\c1ccccc1`, the “% Inhibition @ 10 uM” value is recorded as 3.83%.

Regarding `Nc1c(N2CCCC2)cnn(-c2ccccc2)c1=O`, the “% Inhibition @ 10 uM” value is reported as 6.83%.

Regarding `CCOC(=O)c1c(Cl)nc(Cl)c(N)c1Cl`, the “% Inhibition @ 10 uM” value is listed as -0.597%.

Turning to `Cn1c(=O)c2c(nc(S(C)(=O)=O)n2C)n(C)c1=O`, the “% Inhibition @ 10 uM” value is recorded as -0.671%.

With `Cc1cc2c(c(=O)o1)C(c1cccs1)C(C#N)=C(N)O2` (stereo not shown), the “% Inhibition @ 10 uM” value is -1.93%.

With `O=C(Cn1cnc2onc(-c3ccc(F)cc3)c2c1=O)NCc1cccs1`, the “% Inhibition @ 10 uM” value is 5.84%.

Consider `Cc1ccc(S(=O)(=O)N(CC(=O)N2CCOCC2)c2ccc(C(C)C)cc2)cc1`, for which the “% Inhibition @ 10 uM” value is given as 1.67%.

For `COc1ccc(C(=O)N(Cc2ccc(C)cc2)Cc2ccco2)cc1`, the “% Inhibition @ 10 uM” value turned out to be 6.01%.

For the molecule `O=C(CCSc1ccc2ccccc2n1)Nc1ccc(F)cc1`, the “% Inhibition @ 10 uM” value is reported as -4.75%.

As for `COc1ccc(C2=NN(c3nc(C)c(C(C)=O)s3)C(c3ccco3)C2)cc1` (stereo not shown), the “% Inhibition @ 10 uM” value is 2.42%.

With `CC(C)C[C@H](NC(=O)c1cccc(NC(=O)OC(C)(C)C)c1)C(=O)NCC#N`, the “% Inhibition @ 10 uM” value is given as 1.35%.

On to `Cc1cccc(C(=O)Nc2c3c(nn2-c2ccc(Cl)cc2)CSC3)c1`, for which the “% Inhibition @ 10 uM” value amounted to 1.39%.

For the molecule `O=C(Nc1nc2ccccc2s1)c1cccc(Cl)c1`, the “% Inhibition @ 10 uM” value was 6.97%.

`CCC1(C)NC(=S)N(c2ccccc2)N1` (stereo not shown): the “% Inhibition @ 10 uM” value is recorded as -5.36%.

With `N#Cc1cccc(NC(=O)CCC(=O)O)c1`, the “% Inhibition @ 10 uM” value is on record as -7.87%.

In the case of `CC(=O)c1sc2nc(-c3ccccc3)c(-c3ccccc3)n2c1C`, the “% Inhibition @ 10 uM” value is recorded as -4.01%.

`O=C(O)c1ccc(NS(=O)(=O)c2ccc(S(=O)(=O)N3CCOCC3)cc2)cc1`: the “% Inhibition @ 10 uM” value was -0.795%.

Take `Cc1cccc(C(=O)Nc2ccc(S(=O)(=O)N3CCc4ccccc43)cc2)c1`: the “% Inhibition @ 10 uM” value worked out at 2.27%.

On to `Cc1noc(C(=O)NCCCn2ccnc2)c1Cl`, for which the “% Inhibition @ 10 uM” value is recorded as -3.45%.

For `O=C(c1ccc2c(c1)nc(S)n1c3ccccc3nc21)N1CCN(Cc2ccccc2)CC1`, the “% Inhibition @ 10 uM” value was 3.54%.

For `O=C(Nc1c(C(=O)N2CCN(c3ccccc3)CC2)cnn1-c1ccccc1Cl)c1ccco1`, the “% Inhibition @ 10 uM” value amounted to 0.583%.

As to `Cc1ccccc1OCC(=O)Nc1ccc(S(N)(=O)=O)cc1`, the “% Inhibition @ 10 uM” value was -2.8%.

Turning to `COCc1[nH]nc2c1C(c1ccc(OC(C)C)cc1)C(C#N)=C(N)O2` (stereo not shown), the “% Inhibition @ 10 uM” value is -2.64%.

Take `Cc1cc(C)c2c(N)nn(C(=O)c3ccc(Br)cc3)c2n1`: the “% Inhibition @ 10 uM” value is recorded as -3.34%.

For the molecule `O=C(Nc1ccccc1)c1cccc(N2C(=O)C3CCCCC3C2=O)c1` (stereo not shown), the “% Inhibition @ 10 uM” value was -0.553%.

Regarding `COc1ccccc1C1CC(=O)NC(C)=C1C(=O)OCCSC` (stereo not shown), the “% Inhibition @ 10 uM” value is listed as -4.81%.

On to `COc1ccc(C(=O)O/N=C(\N)c2ccc(OC)c(OC)c2)c(OC)c1`, for which the “% Inhibition @ 10 uM” value worked out at 2.04%.

Consider `Cn1c(=O)c2sccc2n2c(CCCC(=O)N3CCC(Cc4ccccc4)CC3)nnc12`, for which the “% Inhibition @ 10 uM” value was -7.18%.

Take `CCOC(=O)c1c(N)c(C#N)c(C)n1-c1ccc(Br)cc1`: the “% Inhibition @ 10 uM” value is listed as -1.92%.

As to `COc1ccc(CC(=O)O/N=C(\N)c2ccccn2)cc1`, the “% Inhibition @ 10 uM” value is reported as -3.06%.

`Cc1ccc(SC(C)C(=O)NC2CC3CCC2C3)cc1` (stereo not shown): the “% Inhibition @ 10 uM” value is recorded as -0.25%.

Take `CCCN1CCN(C(=O)C2CCN(C(=O)c3cc4sccc4n3C)CC2)CC1`: the “% Inhibition @ 10 uM” value turned out to be 3.4%.

Turning to `COc1ccc2c(c1)CCC1C2=NN(/C(C)=C/C(C)=O)C1c1ccc([N+](=O)[O-])cc1` (stereo not shown), the “% Inhibition @ 10 uM” value is given as 4.54%.

For `CCOc1ccc2nc(SCC(=O)Nc3sc4c(c3C#N)CCC4)sc2c1`, the “% Inhibition @ 10 uM” value is -2.14%.

As for `CCOC(=O)c1ccc(-c2ccc(/C=C3/SC(=N)N(c4nonc4NC(C)=O)C3=O)o2)cc1`, the “% Inhibition @ 10 uM” value was 2.18%.

For the molecule `COc1ccc2ccccc2c1CN1CCN(C(=O)c2ccncc2)CC1`, the “% Inhibition @ 10 uM” value came to 2.3%.

In the case of `CCOc1ccccc1CNC(=O)CCn1c(-c2ccc(F)cc2)cc(C(C)=O)c1C`, the “% Inhibition @ 10 uM” value was -1.7%.

In the case of `COc1cccc(CN(C(=O)c2ccccc2C)C2CCS(=O)(=O)C2)c1` (stereo not shown), the “% Inhibition @ 10 uM” value is 5.17%.

With `CCOc1cc(-c2cc(C(=O)O)c3c(-c4ccc(C)cc4)[nH]nc3n2)ccc1O`, the “% Inhibition @ 10 uM” value is -4.58%.

`COc1ccc(N(CC(=O)Nc2ccc(OC)c(OC)c2)S(C)(=O)=O)cc1`: the “% Inhibition @ 10 uM” value is on record as 1.89%.

As to `NS(=O)(=O)c1ccc(N/C=C/C(=O)c2cccnc2)cc1`, the “% Inhibition @ 10 uM” value is on record as -1.66%.

For the molecule `Cc1nn(-c2c[nH]nc2N)c(C)c1Br`, the “% Inhibition @ 10 uM” value worked out at 4.4%.

Turning to `O=C1OC(/C=C/c2ccccc2)=NC/1=C/c1ccccc1F`, the “% Inhibition @ 10 uM” value came out at 3.42%.

`C=CCSc1nc(N)c(C#N)c(-c2cccs2)c1C#N`: the “% Inhibition @ 10 uM” value is on record as 0.962%.
